Measured values from PubChem BioAssay AID1508642 (National Center for Advancing Translational Sciences (NCATS), 2021).
The campaign covered roughly 43,000 compounds. About 200 (0.47%) were called active. Not shown: some 12% with an inconclusive outcome. Calls come from the whole dose curve; as a rule, active = well fitted cell-killing curve with a large enough effect; inconclusive = small, poorly fitted or top-dose-only effect, or effect the other way; inactive = flat fitted curve, though single readings scatter. Some of the results follow.

Test: Cell viability qHTS assay in S16 Pmp22-F2sN cells; note: nearly all actives have a fitted effect of over 65% in size
Settings: S16 Pmp22-F2sN Schwann cells viability, CellTiter-Glo, 24 h; series mostly up to 57.5 µM; activity change, negative = cytotoxicity: at the top concentration
How it was run: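 Used to flag compounds lowering reporter output through toxicity, this quantitative HTS measures ATP-based CellTiter-Glo luminescence in S16 Pmp22-F2sN Schwann cells after 24 h compound exposure at 37C.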
% is set by controls: 0 for no effect and ±100 for the full control effect.

Question: Which “activity change, negative = cytotoxicity” value does the source give for CC(C)OCCCNC(=O)C(=O)Nc1c2c(nn1-c1ccccc1)CS(=O)(=O)C2 here?
Answer: inactive: -15.8%

Question: Which “activity change, negative = cytotoxicity” value does the source give for CCC(C)NC(=O)c1c(C)oc2ncn(CC(C)C)c(=O)c12 (stereo unspecified) here?
Answer: inactive: 9.01%

Question: For CCCCNC(=O)CSc1nc2cc3c(cc2c(=O)n1CCCC(=O)NCCc1ccc(OC)c(OC)c1)OCO3, which “activity change, negative = cytotoxicity” value is on record?
Answer: inactive: 3.74%

Question: Which “activity change, negative = cytotoxicity” value does the source give for Cc1cc(C(=O)N2CCN(c3ccccc3)CC2)c2c(C)nn(-c3cccc(F)c3)c2n1 here?
Answer: inactive: 9.82%

Question: With COc1cc(NC(=O)C2CCN(C(=O)c3sc4nc[nH]c(=O)c4c3C)CC2)cc(OC)c1OC as the molecule, how does the “activity change, negative = cytotoxicity” value read?
Answer: inactive: 7.54%

Question: With O=C(Cn1c(=O)n(CCc2ccccc2)c(=O)c2cccnc21)Nc1ccc(F)cc1 as the molecule, how does the “activity change, negative = cytotoxicity” value read?
Answer: inactive: -2.52%

Question: With CCCCNC(=O)C1CCC(Cn2c(=O)c3sccc3n(Cc3ccccc3)c2=O)CC1 (stereo unspecified) as the molecule, how does the “activity change, negative = cytotoxicity” value read?
Answer: inactive: 17.9%

Question: With CCC(=O)N1CCc2cc(S(=O)(=O)NC(C(=O)NCCc3ccc(OC)c(OC)c3)C(C)C)ccc21 (stereo unspecified) as the molecule, how does the “activity change, negative = cytotoxicity” value read?
Answer: inactive: -4.58%

Question: Which “activity change, negative = cytotoxicity” value does the source give for Cc1cc(C)c(NC(=O)c2nc3ccccc3nc2N2CCCCC2)c(C)c1 here?
Answer: inactive: 14.5%

Question: Which “activity change, negative = cytotoxicity” value does the source give for Cc1ccc(-n2c(=O)c3c4c(sc3n(Cc3cc(=O)n5cc(Cl)ccc5n3)c2=O)CCC4)cc1C here?
Answer: inactive: 7.91%

Question: Which “activity change, negative = cytotoxicity” value does the source give for CCOC(=O)c1ccccc1NC(=O)CN(c1cccc(C)c1C)S(=O)(=O)c1ccccc1 here?
Answer: inactive: -3.85%

Question: Which “activity change, negative = cytotoxicity” value does the source give for CCc1ccc(-c2nn(CC(=O)NC3CCCCC3)c3c2cnc2ccc(F)cc23)cc1 here?
Answer: inactive: 11%

Question: With COc1ccc(CNC(=O)c2cc3c(=O)n(Cc4cccnc4)ccc3nc2C)cc1 as the molecule, how does the “activity change, negative = cytotoxicity” value read?
Answer: inactive: 6.93%

Question: With COc1ccccc1CNC(=O)c1cc2c(=O)oc3ccc(C)cc3c2s1 as the molecule, how does the “activity change, negative = cytotoxicity” value read?
Answer: inactive: 9.49%

Question: For COc1ccccc1CCNC(=O)Cc1ccc(NC(=O)N2CCSc3ncccc32)cc1, which “activity change, negative = cytotoxicity” value is on record?
Answer: inactive: 0.903%

Question: Which “activity change, negative = cytotoxicity” value does the source give for CCCNS(=O)(=O)c1cc(-c2nn3c(C)nnc3c3ccccc23)ccc1C here?
Answer: inactive: 15.5%

Question: For CC(=O)c1ccc(S(=O)(=O)N2CCn3cccc3C2c2ccccc2F)cc1 (stereo unspecified), which “activity change, negative = cytotoxicity” value is on record?
Answer: inactive: -1.47%

Question: With Cc1cc(C)cc(NC(=O)Cc2csc(C)n2)c1 as the molecule, how does the “activity change, negative = cytotoxicity” value read?
Answer: inactive: 2.16%

Question: With CCOc1ccccc1NC(=O)C1CCN(S(=O)(=O)c2ccc3[nH]c(=O)oc3c2)CC1 as the molecule, how does the “activity change, negative = cytotoxicity” value read?
Answer: inactive: 5.95%

Question: For CCc1cccc(OCC(=O)Nc2ccc(S(=O)(=O)Nc3ncccn3)cc2)c1, which “activity change, negative = cytotoxicity” value is on record?
Answer: inactive: 5.65%

Question: With CC(C)(C)c1ccc(OCc2nc3ccccc3n2CCOc2ccccc2)cc1 as the molecule, how does the “activity change, negative = cytotoxicity” value read?
Answer: inactive: -15.1%

Question: With Cc1cccc(C)c1OCc1nc2c3cnn(-c4ccccc4F)c3ncn2n1 as the molecule, how does the “activity change, negative = cytotoxicity” value read?
Answer: inactive: 4.06%

Question: With O=C(c1ccccc1F)N1c2ncnn2C2(CCCCC2)[C@@H]2CCCC[C@@H]21 as the molecule, how does the “activity change, negative = cytotoxicity” value read?
Answer: inactive: 7.79%

Question: Which “activity change, negative = cytotoxicity” value does the source give for Cc1cccc(Nc2nc(N)nc(N)c2S(=O)(=O)c2ccccc2)c1 here?
Answer: inactive: 20%

Question: With CCSc1ncc(Cl)c(C(=O)Nc2nnc(CC)s2)n1 as the molecule, how does the “activity change, negative = cytotoxicity” value read?
Answer: inactive: -2.24%

Question: With CCOc1ccc2oc(=O)cc(CN3CCN(C(=O)c4ccc(OC)c(OC)c4)CC3)c2c1 as the molecule, how does the “activity change, negative = cytotoxicity” value read?
Answer: inactive: -2.17%
